{
  "source": "PubChem BioAssay AID1345082",
  "about": "(National Center for Advancing Translational Sciences (NCATS), 2018)",
  "note": "The campaign covered roughly 94,000 compounds. About 4,000 (4.3%) were called active. This list was built around the results that the source calls inconclusive (neither active nor inactive); the mix of calls is not that of the screen. Calls follow the shape of the dose curve; as a rule, active = well fitted inhibition curve with a large enough effect; inconclusive = small, poorly fitted or top-dose-only effect; inactive = no such curve, though single readings can be large or run the other way. A potency beside an inconclusive call is a rough fit, not a confirmed value. Potency is read from the fitted curve at half-maximal effect; tags tell the direction and shape of the fitted curve.",
  "data": [
    {"test": "Cytotoxic Profiling in NIH 3T3 Cell Line of Diverse Libraries Using Quantitative High-Throughput Screening; also: nearly all actives have a fitted effect of over 55% in size", "conditions": "NIH 3T3 viability, CellTiter-Glo ATP luminescence, 48-72 h; series mostly up to 96.7 µM", "in_short": "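Cells were seeded at 400 per well, treated with pin-transferred compound, and kept 48 or 72 hr at 37 °C before CellTiter-Glo addition and luminescence imaging of cellular ATP.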", "values": [
      {"smiles": "COCC1CN(C2CCC2)CC12CCN(C(=O)C1CC1)CC2", "note": "(centres undefined)", "Potency": "inactive"},
      {"smiles": "CC(C)c1noc(-c2cn(C3CCN(C(=O)c4cccc(F)c4)C3)nn2)n1", "note": "(centres undefined)", "Potency": "inconclusive: 31.6 µM [inhibitor, partial curve, poor fit]"},
      {"smiles": "CC(C)C(=O)N1CCOc2ccc(CN3CCCCCC3)cc2C1", "Potency": "inactive"},
      {"smiles": "CC(=O)N1CC(N2C(=O)c3c(c(C)nn3-c3ccccc3)C2C2CC2)C1", "note": "(centres undefined)", "Potency": "inconclusive: 112 µM [inhibitor, single point]"},
      {"smiles": "COCCCn1c(=O)c(C(=O)NCc2cccc(Cl)c2)nc2cccnc21", "Potency": "inconclusive: 50.1 µM [inhibitor, partial curve, poor fit]"},
      {"smiles": "COc1cc(Cl)ccc1C(=O)N1CCN(c2cc(C(F)(F)F)nc(C)n2)CC1", "Potency": "inconclusive: 14.1 µM [inhibitor, full curve]"},
      {"smiles": "COc1ccc(C(=O)N2CC(CNC(=O)N3CCCC3)C3(CCOCC3)C2)cc1", "note": "(centres undefined)", "Potency": "inactive"},
      {"smiles": "COc1ccccc1-c1ccc(C(=O)N2CCC(C(=O)NCc3ccccc3)CC2)cc1", "Potency": "inconclusive: 50.1 µM [inhibitor, partial curve, poor fit]"},
      {"smiles": "Cc1cc(C)cc(-c2ccc(CN3CCCC3C(=O)NCCc3ccc(F)cc3)cc2)c1", "note": "(centres undefined)", "Potency": "inconclusive: 44.7 µM [inhibitor, partial curve, poor fit]"},
      {"smiles": "O=c1c2nc(OCc3ccc(F)cc3)ccc2ncn1C1CC1", "Potency": "inconclusive: 100 µM [inhibitor, partial curve, poor fit]"},
      {"smiles": "CCCNC(=O)C1c2ccccc2C(=O)N(C2CCCCC2)C12CCCCC2", "note": "(centres undefined)", "Potency": "inconclusive: 70.8 µM [inhibitor, single point]"},
      {"smiles": "CCc1nncn1C1CCN(S(=O)(=O)c2ccc(C)cc2C)CC1", "Potency": "inactive"},
      {"smiles": "CCN1CCCCC12Cc1ccccc1CN(C(=O)c1c(C)noc1C)C2", "note": "(centres undefined)", "Potency": "inconclusive: 44.7 µM [inhibitor, partial curve, poor fit]"},
      {"smiles": "O=C(NC1CCCN(c2cc(-c3ccc(Cl)cc3)[nH]n2)C1)c1ccoc1", "note": "(centres undefined)", "Potency": "inconclusive: 39.8 µM [inhibitor, partial curve, poor fit]"},
      {"smiles": "CN(c1cc(=O)c2ccnc(N3CCOCC3)c2o1)C1CCOCC1", "Potency": "inconclusive: 100 µM [inhibitor, partial curve, poor fit]"},
      {"smiles": "O=C1NC2(CCCN(Cc3ccc(C(F)(F)F)cc3)C2)Oc2ccccc21", "note": "(centres undefined)", "Potency": "inconclusive: 2.82 µM [inhibitor, full curve, poor fit]"},
      {"smiles": "CNC(=O)c1cc(C2CC2)nc2onc(C3CCN(C(=O)c4ccccc4OC)C3)c12", "note": "(centres undefined)", "Potency": "inconclusive: 44.7 µM [inhibitor, partial curve]"},
      {"smiles": "CCOc1ccccc1CN1CCC2(CCN(Cc3ccc(F)cc3)CC2)Oc2ccccc21", "Potency": "inconclusive: 28.2 µM [inhibitor, partial curve, poor fit]"},
      {"smiles": "Cc1nn(-c2ccccc2)c2c1C(C)N(C1CCCN(C(=O)NC(C)C)C1)C2=O", "note": "(centres undefined)", "Potency": "inconclusive: 50.1 µM [inhibitor, single point]"},
      {"smiles": "COCCNC(=O)C1CCN(c2nccc(Nc3ccc(C)cc3)n2)CC1", "Potency": "inconclusive: 50.1 µM [inhibitor, partial curve, poor fit]"},
      {"smiles": "CCc1ccc(C(=O)N2CCCC(c3nccn3Cc3ccncc3)C2)s1", "note": "(centres undefined)", "Potency": "inconclusive: 89.1 µM [inhibitor, single point]"},
      {"smiles": "COc1ccc(-c2ccnc(-c3nnc(C)n3Cc3cccnc3)c2)cc1OC", "Potency": "inconclusive: 89.1 µM [inhibitor, partial curve]"},
      {"smiles": "COc1cc(OC)cc(C(=O)Nc2ccc3c(c2)CN(Cc2ccc(F)cc2)C(=O)C(C)O3)c1", "note": "(centres undefined)", "Potency": "inconclusive: 28.2 µM [inhibitor, full curve, poor fit]"},
      {"smiles": "COc1ccc(C(=O)N[C@@H]2CCC[C@@H]2C(=O)NCCCN2CCCc3ccccc32)cc1", "Potency": "inconclusive: 70.8 µM [inhibitor, partial curve, poor fit]"},
      {"smiles": "COCc1c(C(=O)N[C@H](c2ccc(OC)nc2)C2CC(O)C2)noc1C", "note": "(some centres undefined)", "Potency": "inactive"},
      {"smiles": "Cc1ccccc1NC(=O)C1=NO[C@@H]2CN(c3ccccn3)C[C@H]12", "Potency": "inconclusive: 79.4 µM [inhibitor, partial curve, poor fit]"},
      {"smiles": "O=c1cc(-c2ccccn2)oc2c(-c3ccccc3F)nccc12", "Potency": "inconclusive: 11.2 µM [inhibitor, full curve, poor fit]"},
      {"smiles": "Cn1ncc2c(C(=O)NCC(F)F)cc(-c3cccc(C(F)(F)F)c3)nc21", "Potency": "inactive"},
      {"smiles": "CN(Cc1cccc(OC(F)(F)F)c1)C(=O)C1(c2ccc(Cl)cc2)CCOCC1", "Potency": "inconclusive: 50.1 µM [inhibitor, partial curve, poor fit]"},
      {"smiles": "O=C(C1CCCN1C(=O)c1ccc(C(F)(F)F)cc1)N1CCC(N2Cc3ccccc3C2=O)CC1", "note": "(centres undefined)", "Potency": "inconclusive: 44.7 µM [inhibitor, partial curve, poor fit]"},
      {"smiles": "CCCCCNC(=O)C1CCCN1C(=O)c1cccc(-c2cccc(OC)c2)c1", "note": "(centres undefined)", "Potency": "inconclusive: 79.4 µM [inhibitor, partial curve]"},
      {"smiles": "O=C(c1n[nH]c2ccccc12)N1CCC(Cc2nc(-c3ccncc3)n[nH]2)CC1", "Potency": "inconclusive: 70.8 µM [inhibitor, single point]"},
      {"smiles": "CC(C)N1CCN(C(=O)C2Cn3cccc3C(=O)N2Cc2cccnc2)CC1", "note": "(centres undefined)", "Potency": "inactive"},
      {"smiles": "COC(=O)[C@@H]1Cc2ncn(Cc3ccccc3)c2CN1S(=O)(=O)c1cccc(C(F)(F)F)c1", "Potency": "inconclusive: 44.7 µM [inhibitor, partial curve, poor fit]"},
      {"smiles": "CC(C)(C)n1cc(-c2cc(C(=O)N3C[C@H]4CC[C@H]3C4)c3ccccc3n2)cn1", "Potency": "inconclusive: 50.1 µM [inhibitor, partial curve, poor fit]"},
      {"smiles": "CCc1noc(CN2CCOc3c(O)cc(-c4ccccc4C)cc3C2)n1", "Potency": "inconclusive: 50.1 µM [inhibitor, partial curve, poor fit]"},
      {"smiles": "O=C(NC1CC1)c1ccccc1OC1CN(Cc2cccc(F)c2F)C1", "Potency": "inactive"},
      {"smiles": "COc1ccc(-c2ncc3c(n2)OCCN(c2ccccc2)C3=O)cc1F", "Potency": "inconclusive: 8.91 µM [inhibitor, full curve, poor fit]"},
      {"smiles": "O=C1CC2(CCN(S(=O)(=O)c3cccc4nsnc34)C2)C(=O)N1", "note": "(centres undefined)", "Potency": "inactive"},
      {"smiles": "COc1ccc(-c2cc(N3CCN(C(=O)c4cccc(OC)c4OC)CC3)n[nH]2)cc1", "Potency": "inconclusive: 35.5 µM [inhibitor, partial curve]"},
      {"smiles": "CCc1nc2c(c(-c3ccc(Cl)cc3)n1)CN(Cc1ccc(N(C)C)cc1)CC2", "Potency": "inconclusive: 44.7 µM [inhibitor, partial curve, poor fit]"},
      {"smiles": "COc1ccc(-c2ccc3ncc(Nc4cccc(Cl)c4)n3n2)cn1", "Potency": "inconclusive: 44.7 µM [inhibitor, full curve, poor fit]"},
      {"smiles": "CN(C)c1ccc(CN2CCC3(C2)C(=O)N(C)c2ccccc23)cc1", "note": "(centres undefined)", "Potency": "inconclusive: 89.1 µM [inhibitor, partial curve, poor fit]"},
      {"smiles": "CC1=NS(=O)(=O)N(Cc2ccccc2)C=C1C(=O)OCc1noc(-c2ccccc2C)n1", "Potency": "inconclusive: 20 µM [inhibitor, full curve]"},
      {"smiles": "CC(C)c1nc2c(c(-c3ccc(O)cc3)n1)CN(Cc1cccn1C)CC2", "Potency": "inconclusive: 56.2 µM [inhibitor, partial curve, poor fit]"},
      {"smiles": "Cn1ncc2c(C(=O)NC3CC3)cc(-c3cccc(F)c3)nc21", "Potency": "inconclusive: 25.1 µM [inhibitor, full curve, poor fit]"},
      {"smiles": "Cc1cccc(CNC(=O)C2CCN(C(=O)c3ncn4c3COC(c3ccc(F)cc3)C4)CC2)c1", "note": "(centres undefined)", "Potency": "inactive"},
      {"smiles": "O=C(O)CCn1ncc2cc(OCC3CCN(C(=O)OC4CCCC4)CC3)ccc21", "Potency": "active: 25.1 µM"},
      {"smiles": "Cc1ccc(NC(=O)C2CCCN(c3cnn(Cc4ccccc4)c(=O)c3)C2)c(C)c1", "note": "(centres undefined)", "Potency": "inconclusive: 56.2 µM [inhibitor, partial curve, poor fit]"},
      {"smiles": "O=C(O)Cn1ccc2cc(OCC3CCN(C(=O)COc4ccccc4)CC3)cnc21", "Potency": "inconclusive: 89.1 µM [inhibitor, partial curve, poor fit]"},
      {"smiles": "CC(C)COc1cc(=O)n2c(c1C(=O)N1CCOCC1)CCCCC2", "Potency": "inconclusive: 31.6 µM [inhibitor, partial curve]"},
      {"smiles": "CNC(=O)[C@H]1C[C@H](Oc2ccccc2)CN1S(=O)(=O)c1cn(C)cn1", "Potency": "inconclusive: 50.1 µM [inhibitor, partial curve, poor fit]"},
      {"smiles": "COc1ccc(CN2C(=O)COC[C@@H]2[C@H](O)c2ccc(NC(C)=O)cc2)cc1", "Potency": "inactive"},
      {"smiles": "COCc1ccc2c(c1)c(OC(C)(C)C(=O)NCCCn1ccnc1)nn2Cc1ccccc1", "Potency": "active: 22.4 µM"},
      {"smiles": "Cc1ccc2c(n1)N(C)[C@H](CO)CCN(Cc1ccc(C(C)C)cc1)C2", "Potency": "inconclusive: 89.1 µM [inhibitor, partial curve, poor fit]"},
      {"smiles": "COc1ccc(-c2nnc3ccc(Nc4cccc(OC)c4)nn23)nc1", "Potency": "inconclusive: 31.6 µM [inhibitor, partial curve, poor fit]"},
      {"smiles": "CO[C@H]1C(=O)N(C)C2(CCN(C(=O)c3cccs3)CC2)[C@@H]1C(=O)N(C)c1ccccc1", "Potency": "inconclusive: 44.7 µM [inhibitor, partial curve, poor fit]"},
      {"smiles": "COc1ccc2[nH]c3c(c2c1)CCNC31CCN(C(=O)C(C)(C)C)CC1", "Potency": "inconclusive: 50.1 µM [inhibitor, partial curve, poor fit]"},
      {"smiles": "CSc1ccc(-c2cccc(C(=O)NCCNC(=O)N(C)C)c2)cc1", "Potency": "inconclusive: 35.5 µM [inhibitor, partial curve]"}
    ]}
  ]
}
